In all, about 110,000 compounds were measured (“z-score”: median about -0.1, highest 2% from about 2 on). Some of the results follow. Active and inactive are the calls of the source.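 Rule for the calls: active = z-score in the third read window above 3 or below -3; inactive = the rest.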
The molecules below were run against Metabotropic glutamate receptor 8 (Rattus norvegicus) (UniProt P70579) (assay: mGluR8 Gi/Go-coupled signaling modulation – cell-based, rat, thallium flux, HTS, primary screen (AID 488969)). Conditions: HEK293 rat mGluR8, GIRK (G protein-gated inwardly rectifying potassium channel) thallium flux, FluoZin2; at 10 µM; stronger effect = higher value; submaximal glutamate (EC20) added with thallium.
Chain of UniProt P70579 (P70579 whole entry, looked up): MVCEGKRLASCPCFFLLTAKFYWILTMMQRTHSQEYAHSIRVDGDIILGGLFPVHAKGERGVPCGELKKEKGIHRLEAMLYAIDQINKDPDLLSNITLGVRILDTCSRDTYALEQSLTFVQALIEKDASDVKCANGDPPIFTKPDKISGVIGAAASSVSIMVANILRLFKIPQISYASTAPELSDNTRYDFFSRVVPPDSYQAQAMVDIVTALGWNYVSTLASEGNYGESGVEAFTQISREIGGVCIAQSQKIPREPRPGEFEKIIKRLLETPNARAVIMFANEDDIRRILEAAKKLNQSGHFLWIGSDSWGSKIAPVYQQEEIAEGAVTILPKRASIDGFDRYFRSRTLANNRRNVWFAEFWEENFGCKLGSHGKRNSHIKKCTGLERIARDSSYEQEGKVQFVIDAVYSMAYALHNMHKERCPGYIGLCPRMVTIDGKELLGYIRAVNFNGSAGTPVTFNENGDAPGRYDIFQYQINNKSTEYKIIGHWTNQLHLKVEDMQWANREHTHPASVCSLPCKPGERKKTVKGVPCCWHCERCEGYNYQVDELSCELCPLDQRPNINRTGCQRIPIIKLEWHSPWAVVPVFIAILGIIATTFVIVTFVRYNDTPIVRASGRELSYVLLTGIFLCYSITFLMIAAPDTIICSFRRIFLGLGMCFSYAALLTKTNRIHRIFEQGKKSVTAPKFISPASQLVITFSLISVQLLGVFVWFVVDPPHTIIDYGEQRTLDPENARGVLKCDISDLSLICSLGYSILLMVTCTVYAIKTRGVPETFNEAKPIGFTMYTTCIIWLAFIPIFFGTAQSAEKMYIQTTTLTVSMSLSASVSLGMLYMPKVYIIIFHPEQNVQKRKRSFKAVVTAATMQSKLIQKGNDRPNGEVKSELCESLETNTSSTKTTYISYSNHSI
Molecule `c1ccc(COc2nsnc2N2CCOCC2)cc1` has a z-score of -0.329.
`O=C(C1=C(O)C(=O)N(c2ncccn2)C1c1ccc(Cl)c(Cl)c1)c1ccco1` (stereo unspecified) showed a z-score of -0.896.
Molecule `CCOC(=O)CSc1nnc(-c2ccccc2NC(=O)c2ccccc2)o1` has a z-score of -0.284.
In the case of `CSc1ccc(/C=N\NC(=O)CNc2ccc(C)cc2)cc1`, the z-score is reported as -0.273.
Molecule `COC(=O)CSc1nnc(-c2cnccn2)n1C` has a z-score of -0.612.
With `Cc1cc(C)cc(C(=O)N2CC(C)SC2=Nc2cccc(S(=O)(=O)N(C)C)c2)c1` (stereo unspecified) the z-score was -0.624.
`Cc1ccnc(NS(=O)(=O)c2ccc(NC(=O)c3cncc(Br)c3)cc2)n1` showed a z-score of -0.0801.
`CC(C)(Oc1ccc(Cl)cc1)C(=O)OCC(=O)Nc1ncc(Cl)cc1Cl` was tested, and the z-score was -0.203.
For `Cc1ccc(S(=O)(=O)CCC(=O)Nc2nc3c(s2)CCCC3)cc1`, the z-score was 0.0967.
Molecule `Clc1ccc(CO/N=C2\CCCc3nonc32)cc1` has a z-score of -0.224.
Molecule `CCOC(=O)C1CCN(C(=O)c2oc3ccc(S(=O)(=O)N4CCCCCC4)cc3c2C)CC1` has a z-score of -1.51.
`Cc1cccc2cc(CN(Cc3nnnn3Cc3ccccc3)C3CCCC3)c(=O)[nH]c12` was tested, and the z-score was -0.368.
Molecule `O=S(=O)(NCc1ccco1)c1cnc(Cl)c(Br)c1` has a z-score of -0.0032.
`CC(=C/c1ccccc1)/C=N/n1c(-c2ccco2)n[nH]c1=S` showed a z-score of 2.16.
With `COC(=O)C(C(=O)OC)C(C(C)C)C(C(=O)OC)C(=O)OC` the z-score was -0.152.
`COC(CNC(=O)c1ccc(Cn2c(=S)[nH]c3cc4c(cc3c2=O)OCO4)cc1)OC` showed a z-score of -0.243.
With `O=C(Nc1ccc2nsnc2c1)N1CCCCCC1` the z-score was -0.178.
In the case of `O=C(NCC1CCCO1)C1CC(=O)N(C2CCCC2)C1` (stereo unspecified), the z-score is reported as -0.08.
In the case of `CC1(C)CN2C(=S)N(c3ccccc3)C(c3ccccc3)N2C1` (stereo unspecified), the z-score is reported as -0.619.
Work on `Cc1ccccc1N=C1SCC(=O)N1Cc1ccccc1` yielded a z-score of -0.164.
Molecule `CC(c1cccnc1)N(CCN(C)C)C(=O)Nc1ccc(Cl)c(Cl)c1` (stereo unspecified) has a z-score of -0.706.
`O=C(NC1CCCCC1)C(c1ccccc1F)N(Cc1ccco1)C(=O)Cn1nnc2ccccc21` (stereo unspecified) showed a z-score of -0.0968.
Work on `CCOC(=O)c1ccccc1NC(=O)Cn1cnc2c(cnn2-c2ccc(F)cc2)c1=O` yielded a z-score of 1.16.
Work on `OCCSc1nc(-c2cccnc2)nc2ccccc12` yielded a z-score of -0.755.
With `CCOC(=O)c1c(C)[nH]c(C(=O)OCC(=O)Nc2cc(Cl)ccc2OC)c1C` the z-score was 0.576.
In the case of `O=C(c1ccc(Cl)c(S(=O)(=O)NCc2ccccc2)c1)N1CCN(c2ccccn2)CC1`, the z-score is reported as -0.259.
In the case of `CCN(CC)CCCn1c(=S)[nH]c2ccccc2c1=O`, the z-score is reported as 0.126.
`O=C(CCSCCC(=O)NCCN1CCOCC1)NCCN1CCOCC1` showed a z-score of 0.173.
For `CCN(CC)S(=O)(=O)c1ccc(C(=O)N2CCCCC2)cc1`, the z-score was 0.109.
With `Cc1cccc2cc(CN(Cc3nnnn3Cc3ccco3)C3CCCC3)c3nnnn3c12` the z-score was -0.979.
`O=C(CSc1ccc(Cl)cc1)Nn1cnnc1` showed a z-score of -0.297.
`COc1cc2c(cc1OC)C1=C(C#N)CN(C3CCCCC3)CN1CC2` was tested, and the z-score was 0.175.
With `CCc1ccc2c(c1)c1nnc(NN)nc1n2CC` the z-score was -0.278.
`COCCn1c(C)cc(C(=O)CSc2ncnc3sc4c(c23)CCC4)c1C` was tested, and the z-score was 1.72.
`CCN(CC)C(=O)c1ccc(COc2ccccc2Br)o1` was tested, and the z-score was -1.24.
`C=CCn1c(SCC(=O)Nc2sc3c(c2C#N)CCC3)nnc1C1COc2ccccc2O1` (stereo unspecified) was tested, and the z-score was 0.0194.
For `CCN(Cc1ccccc1)C(c1ccc(C)cc1)c1nnnn1C(C)(C)C` (stereo unspecified), the z-score was 0.051.
Molecule `CCc1ccccc1OCCCCN1CCCC1` has a z-score of 1.44.
In the case of `OC(CN1C2=NCCCN2c2ccccc21)c1ccc(Br)cc1` (stereo unspecified), the z-score is reported as active: 3.3.
In the case of `CCNC(=O)Cn1cc(C#N)c2ccccc21`, the z-score is reported as -1.21.
`O=C(NCCN1CCOCC1)c1cc(Cl)ccc1[N+](=O)[O-]` showed a z-score of 5.55e-05.
In the case of `COc1cccc(C(=O)NCC(=O)OCC(=O)c2ccccc2)c1`, the z-score is reported as -0.172.
Molecule `COc1cc(CNc2ccc3c(c2)CCC3)cc(OC)c1O` has a z-score of 0.112.
`CC(/C=N/N1CCN(c2ccccc2)CC1)=C\c1ccco1` gave a z-score of 0.13.
In the case of `COc1ccc(C2Nc3ccccc3C(=O)N2c2ccc(C)cc2)cc1Cn1nnc2ccccc21` (stereo unspecified), the z-score is reported as -0.299.
Work on `CCOC(=O)N1CCC(N2Cc3cccc(C(=O)N4CCN(C5CCCCC5)CC4)c3C2=O)CC1` yielded a z-score of -0.345.
`COc1cc(-c2nc3ccccc3c(=O)n2N)cc(OC)c1OC` gave a z-score of -0.0215.
Molecule `N#Cc1ccc(/C=C/C(=O)c2ccco2)cc1` has a z-score of -0.0561.
In the case of `CCOc1ccc(OCC)c(-c2c(=O)n(OCc3ccccc3C(=O)OC)c3ccccc3[n+]2[O-])c1`, the z-score is reported as -0.262.
`CCn1c(CNc2ccc(C)cc2)nnc1SCC(=O)NCc1ccccc1` showed a z-score of -0.287.
`Cc1ccc(NC(=O)C(C)c2ccc([N+](=O)[O-])cc2)cc1Cl` (stereo unspecified) showed a z-score of -0.429.
`COc1cc(NC(=S)NC(=O)c2ccc(C(C)(C)C)cc2)ccc1NC(=O)c1cccs1` showed a z-score of -0.0222.
Work on `CCOc1ncccc1C(=O)NCc1cccc(OC)c1` yielded a z-score of -0.397.
`CN(CCc1ccccn1)S(=O)(=O)c1ccc(F)cc1` was tested, and the z-score was -0.0951.
Work on `O=[N+]([O-])c1ccc(Oc2cccc3cccnc23)c([N+](=O)[O-])c1` yielded a z-score of -0.181.
For `Cc1sc2nc(C)n(/N=C/c3ccccc3O)c(=O)c2c1C`, the z-score was -0.126.
In the case of `O=C(CSc1nnc(Cc2ccccc2)n1-c1cccc(Cl)c1)N1CCOCC1`, the z-score is reported as 0.738.
For `C[N+]1(CC(=O)OCCCc2ccccc2)CCOCC1`, the z-score was 0.941.
`CC(C)[C@H](NC(=O)OCc1ccccc1)C(=O)OCC(=O)Nc1c(F)cccc1F` showed a z-score of -0.556.
For `COc1ccccc1-c1cc(C(F)(F)F)nc(S(=O)(=O)CCCC(=O)N2CCCCC2C)n1` (stereo unspecified), the z-score was 0.809.
Molecule `CS(=O)(=O)N(CC(=O)N1CCN(c2ccccc2)CC1)c1ccccc1Cl` has a z-score of -0.0986.
In the case of `CCN(CCO)c1cc(Cl)nc(SC)n1`, the z-score is reported as -0.0741.
For `O=C(N/N=C/c1ccc(Cl)cc1)Nc1ccccc1`, the z-score was -0.0155.
For `CCSc1nnc(NC(=O)C2CC2c2ccccc2)s1` (stereo unspecified), the z-score was -1.48.
For `Cc1c(Cl)cccc1NC(=O)c1ccc(-n2ccnc2)nc1`, the z-score was 0.0859.
Work on `O=C(N/N=C/c1ccc(O)cc1)c1csc2ccccc12` yielded a z-score of -0.157.
`CSc1ccc(S(=O)(=O)Nc2ccc(N3CCOCC3)c(Cl)c2)cc1` showed a z-score of 0.314.
`COc1ccc(OC)c(N(CC(=O)NCc2cccnc2)S(C)(=O)=O)c1` showed a z-score of 0.361.
With `Cc1ccc(C(C(=O)NC2CCCCC2)N(C(=O)Cc2c[nH]c3ccccc23)c2ccccc2C)o1` (stereo unspecified) the z-score was -0.247.
With `COc1cc(C(=O)OCc2ccc(C)cc2)cc(NC(=O)c2cccs2)c1OC` the z-score was -0.449.
Molecule `Cc1cc(Cl)c(OCCCSc2nc(C)cc(=O)[nH]2)c(Br)c1` has a z-score of -0.354.
`O=C1/C(=C/c2ccccc2)NC(=S)N1C(c1ccccc1)c1ccccc1` gave a z-score of -0.277.
`Cc1cccc(NC(=O)CSc2ccc(-c3cccs3)nn2)c1C` showed a z-score of -0.36.
Molecule `CC(C)Cc1n[nH]c(=O)[nH]1` has a z-score of 0.174.
In the case of `Cc1c(C(=O)Nc2ccccc2-c2ccccc2)cccc1[N+](=O)[O-]`, the z-score is reported as -0.148.
Molecule `Cc1ccccc1C(=O)Nc1nnc(-c2ccc(F)cc2)o1` has a z-score of -0.035.
`Cc1ccccc1OCCCC(=O)Nc1ccc2c(c1)OCO2` was tested, and the z-score was 0.157.
`CCOc1ccc(/C=C/C(=O)Nc2ccc3[nH]c(=O)[nH]c3c2)cc1` was tested, and the z-score was 0.494.
`Cc1noc(NS(=O)(=O)c2ccc(N/C=C/C(=O)c3ccccc3)cc2)c1C` showed a z-score of -0.0688.
Molecule `O=S(=O)(c1ccc(F)cc1)N1CCN(c2ncnc3c2cnn3-c2ccccc2)CC1` has a z-score of 2.11.
Work on `Cc1ccc2c(ccc[n+]2CC(=O)c2ccccc2)c1` yielded a z-score of 0.0557.
Work on `Cc1nc(SCC(=O)c2ccc(F)cc2)c([N+](=O)[O-])[nH]1` yielded a z-score of -0.292.
Molecule `COc1ccc(O)c(-c2[nH]ncc2C(=O)c2ccccc2)c1` has a z-score of 0.0376.
`O=C(Nc1ccc2c(c1)CCC2)c1cccc(S(=O)(=O)N2CCN(c3ccc(F)cc3)CC2)c1` showed a z-score of -0.224.
For `C1CSC2(N1)C1CC3CC2CC(C1)C31NCCS1` (stereo unspecified), the z-score was 0.602.
`CCCNC(=O)NC(C)C12CC3CC(CC(C3)C1)C2` (stereo unspecified) showed a z-score of -0.173.
In the case of `Cc1cc(NC(=O)CCC(=O)N(CC(=O)NCC2CCCO2)Cc2ccc(F)cc2)no1` (stereo unspecified), the z-score is reported as -0.218.
For `O=C(c1cccc(Cl)c1)N1CCN(C2CCCCCC2)CC1`, the z-score was 0.678.
With `CCC(=O)c1cc(F)c(N2CCN(S(=O)(=O)c3ccccc3)CC2)cc1C` the z-score was -0.247.
`CCNc1nc(NCC)nc(N(C)n2cnnc2)n1` gave a z-score of -0.0641.
With `O=C(O)c1cc(S(=O)(=O)N2CCCC2)ccc1Br` the z-score was 0.147.
`CC(=O)c1cccc(NC(=O)CN(c2cccc(F)c2)S(C)(=O)=O)c1` showed a z-score of -0.268.
With `CC(=O)Nc1ccc(S(=O)(=O)N2CCc3ccccc3C2)cc1` the z-score was 0.446.
Molecule `Cc1cc2nnc(SCC(=O)N3C(C)CCCC3C)n2c(N)n1` (stereo unspecified) has a z-score of -0.291.
`NC(=O)CSc1nnnn1-c1ccc2c(c1)OCCO2` showed a z-score of -0.327.
`Cc1cc(NC(=O)Nc2cccc3ccccc23)no1` was tested, and the z-score was 0.348.
`CCn1nc(C)c(Oc2ccccc2O)c1C` was tested, and the z-score was -0.589.
`CCCC(=O)Nc1nc2ccc(S(=O)(=O)N3CCCCC3)cc2s1` showed a z-score of -0.273.
With `Cc1cc(C)n(C(=O)c2ccc(NC(=O)CC(C)C)cc2)n1` the z-score was 0.147.
Molecule `CCOC(=O)Cc1csc(NC(=O)C2CCCCC2C(=O)O)n1` (stereo unspecified) has a z-score of 0.749.
Work on `O=C(CSCC(=O)Nc1ccccc1)N/N=C/c1c(O)ccc2ccccc12` yielded a z-score of -0.0184.
Molecule `Cc1ccc(-c2ccc(/C=N/N3C(=O)C4C5C=CC(C6CC56)C4C3=O)o2)c([N+](=O)[O-])c1` (stereo unspecified) has a z-score of -0.416.
`CCOC(=O)Nc1ccc(Oc2ccccc2)cc1` was tested, and the z-score was -0.451.
`O=C(CSc1ccc2ccccc2n1)c1ccc2c(c1)OCO2` was tested, and the z-score was -0.358.
For `O=C(O)CSc1nnnn1-c1ccc2c(c1)OCCO2`, the z-score was -0.0806.
For `COc1ccc(NC(=O)N2CCC(C(=O)c3ccc(F)cc3)CC2)cc1`, the z-score was 0.923.
In the case of `O=C(CSc1nnc(CNC(=O)c2cccs2)o1)c1ccccc1`, the z-score is reported as -0.102.
Molecule `O=C(CSC1=NCCS1)N1CCN(c2ccc(Cl)cc2)CC1` has a z-score of 0.56.
`Cc1ccc(C)c(/C(O)=C2\C(=O)C(=O)N(CCCN3CCOCC3)C2c2cccnc2)c1` (stereo unspecified) was tested, and the z-score was -0.222.
For `CCC(C)(C)n1nnnc1CN(Cc1cc2cc(OC)ccc2[nH]c1=O)C1CCCC1`, the z-score was -0.199.
`CCOC(=O)C1=C(C)C2C3C(=O)N(c4ccccc4C)C(=O)C3C1(C)C1C(=O)N(c3ccccc3C)C(=O)C21` (stereo unspecified) showed a z-score of -0.246.
